Among all 150,000 compounds or so, about 540 (0.36%) showed an effect of 50% or more. The list shows a part of the results.

The test system of this assay is Plasmodium falciparum. The experiment in a line: Primary screen in NF54 nanoGlo assay, in single point, at 2uM, 72h; a lower Z score goes with more inhibition. The settings on record: timepoint 72 hour. Type of assay: functional, Erythrocyte.
As to `N#C[C@H]1C(=O)c2ccccc2N(Cc2ccccc2)C1=O`, the “% Inhibition” value was -5% and the Z score worked out at 0.84.
Taken in the same sequence, the figures for `O=C(NC1CC1)N(CCN1CCCC1)Cc1ccc(Cl)cc1` were -1% and 0.1.
For the molecule `CN(CCC#N)C(=O)Cn1ccc(C(F)(F)F)n1`, the “% Inhibition” value was -2% and the Z score is listed as 0.28.
In the case of `Cc1ncc(C(=O)NC[C@@H](c2ccc(F)cc2)N2CCCC2)c(O)n1`, the “% Inhibition” value is -8% and the Z score was determined as 1.17.
For `CN1C(=O)[C@@H]2CCC[C@H]1CN(Cc1cc(C3CC3)n[nH]1)C2`, the “% Inhibition” value was -6% and the Z score came out at 1.17.
For the molecule `O=C(O)[C@H]1CCCN(C(=O)c2ccc(-c3nc(C4CC4)no3)cc2)C1`, the “% Inhibition” value is -6% and the Z score is recorded as 1.15.
As for `CO[C@@H](C(=O)N1CCC2(CCC(O)CC2)CC1)c1ccccc1`, the “% Inhibition” value is recorded as -9% and the Z score is 1.18.
As to `CCN1C(=O)[C@@H]2CC3(CCN(S(=O)(=O)c4cccnc4)CC3)CN2C1=O`, the “% Inhibition” value is listed as -9% and the Z score came out at 1.17.
As to `O=C(O)[C@@]12COC[C@@H]1CN(Cc1cc(Cl)cc3ccccc13)C2`, the “% Inhibition” value is given as 3% and the Z score is listed as -0.56.
On to `Cc1ccc(CN(C)C(=O)c2cc(COc3ccc4c(c3)OCO4)[nH]n2)o1`, for which the “% Inhibition” value came to 0% and the Z score came to 0.04.
Take `Cc1nn(C)c2nc(NC[C@H]3CCN(C4CCCC4)C3)sc12`: the “% Inhibition” value was -8% and the Z score is on record as 1.44.
Taken in the same sequence, the figures for `CN(CC(=O)NCc1ccco1)C(=O)Cn1cnc2ccccc2c1=O` were 15% and -2.17.
Taken in the same sequence, the figures for `Cc1c(-c2c(-c3ccccc3)ncn2CCS(C)(=O)=O)[nH]c2ccccc12` were -5% and 0.58.
As to `O=C(c1cccnc1)N1CC[C@H](Cc2noc(C3CC3)n2)C1`, the “% Inhibition” value worked out at 4% and the Z score is -0.57.
For `Cc1ccc(C2=NO[C@H](c3ccc(C)cc3)C2)cc1`, the “% Inhibition” value was -10% and the Z score is 1.99.
Regarding `CN(CC(=O)N1N=C(c2ccccc2F)C[C@H]1c1ccc(Cl)cc1)C(=O)c1cccc(F)c1`, the “% Inhibition” value is given as 9% and the Z score is recorded as -0.99.
As to `CCn1ncc(NC(=O)c2cccc(OC)c2)c(N2CCCCC2)c1=O`, the “% Inhibition” value is given as -1% and the Z score was found to be 0.23.
Taken in the same sequence, the figures for `CC[C@H](NCCCC#N)c1ccc(F)cc1F` were 6% and -0.87.
Take `Cc1ccc(C(=O)NCc2cc[nH]n2)n1C(F)F`: the “% Inhibition” value is reported as -10% and the Z score was 1.22.
For the molecule `COc1cc(Cl)cc([C@H](C)Nc2cc(N3CCNCC3)ccc2S(C)(=O)=O)c1OC`, the “% Inhibition” value is given as -7% and the Z score was found to be 1.14.
Take `CCCCc1nc([C@H]2CC(=O)Nc3c2cnn3Cc2cccnc2)c[nH]1`: the “% Inhibition” value is reported as -4% and the Z score was 0.82.
Take `COC(=S)NC(=O)c1ccc(Cl)cc1`: the “% Inhibition” value is listed as 4% and the Z score was -0.49.
Regarding `O=C(CC1CCC(F)(F)CC1)Nc1ccc2c(n1)OCCO2`, the “% Inhibition” value is -3% and the Z score came to 0.34.
Regarding `CCc1nc(CN2CCN(S(=O)(=O)Cc3ccccc3C)CC2)no1`, the “% Inhibition” value is listed as 7% and the Z score is given as -1.4.
For `O=C(N[C@@H]1C=C[C@H](CO)C1)c1cn2ccnc2s1`, the “% Inhibition” value was -2% and the Z score is 0.29.
Consider `Cn1ccnc1-c1noc(C[C@@H]2C[C@H]2c2ccccc2)n1`, for which the “% Inhibition” value is reported as -6% and the Z score amounted to 0.68.
For `Cc1ccc(N2C(=O)C3C(c4ccccc4O)NC(Cc4c[nH]c5ccccc45)(C(=O)O)C3C2=O)cc1` (centres undefined), the “% Inhibition” value stood at 0% and the Z score is recorded as 0.06.
Take `Cc1nc(-c2ccc3c(c2)OCO3)cs1`: the “% Inhibition” value is -13% and the Z score was 1.85.
On the same counts, the results for `CC[C@@H](CO)NC(=O)Nc1cccc(C)c1` are 34% and -0.75.
For the molecule `COc1ccc(S(=O)(=O)N[C@H]2CCNC2=O)c2c1CCCC2`, the “% Inhibition” value was -12% and the Z score is 1.54.
On the same counts, the results for `CCC1CC(NC(=O)NCc2ccc3occc3c2)CCO1` (centres undefined) are 4% and -0.59.
On the same counts, the results for `CC(C)[C@H](NC1CN(C(=O)OCc2ccccc2)C1)c1nncn1C` are -8% and 1.43.
As to `COc1ccc(Oc2cn[nH]c2-c2ccc(OCc3ccc(F)cc3)cc2O)cc1`, the “% Inhibition” value is on record as 4% and the Z score was -0.82.
Take `Cc1ccc2nc(CCCNC(=O)c3cc4n(n3)CCCN(C)C4)oc2c1`: the “% Inhibition” value is -7% and the Z score is given as 1.25.
For the molecule `CCCCOCCCNC(=O)CS(=O)(=O)Cc1ccccc1`, the “% Inhibition” value is listed as -8% and the Z score was 1.57.
Take `Cc1cc(C2(NC(=O)Nc3cccc(-n4ccnn4)c3)CCOCC2)on1`: the “% Inhibition” value was -8% and the Z score is 1.24.
As for `O=C(Cc1c[nH]c2ccccc12)N1CC[C@H](CCOc2ccccc2F)C1`, the “% Inhibition” value was -6% and the Z score worked out at 1.07.
Regarding `COc1cccc(C(=O)N(CCC(=O)N2CCNCC2)CCC(C)C)c1`, the “% Inhibition” value was -3% and the Z score was 0.34.
Consider `O=C1N(C2CCCCC2)CCC[C@@]12CCN(c1nc(CO)cs1)C2`, for which the “% Inhibition” value is reported as -3% and the Z score is reported as 0.65.
Regarding `COc1ccccc1CCNC(=O)CC[C@@H]1CN(Cc2ccccc2)CC[C@@H]1N1CCN(C)CC1`, the “% Inhibition” value was 8% and the Z score is on record as -0.91.
On to `CC(C)(C)S(=O)(=O)[C@H]1CCN(C(=O)Cc2c(F)cccc2Cl)C1`, for which the “% Inhibition” value is reported as 4% and the Z score is given as -0.7.
As to `C[C@@]1(C(=O)NCc2ccccc2)Cn2cnc(C(=O)N3CCOCC3)c2C(=O)N1C1CC1`, the “% Inhibition” value is given as -9% and the Z score worked out at 1.71.

These data come from ChEMBL document CHEMBL4888484, “Replenishing the malaria drug discovery pipeline: Screening and hit evaluation of the MMV Hit Generation Library 1 (HGL1) against asexual blood stage Plasmodium falciparum ,using a nano luciferase reporter read-out” (2022).
